Source: the RNAGym collection of RNA variant scans (doi:10.1093/nar/gkz1192)
The source gives no read counts; variants with many changes may rest on few reads.

B1: CPEB3 Ribozyme (parent)
chain: UAACAGGGGGCCACAGCAGAAGCGUUCACGUCGCAGCCCCUGUCAGAUUCUGGUGAAUCUGCGAAUUCUGCUGUAUAUCUC

Variants of: B1
Experiment: self-cleavage, relative activity (ratio to wild type); higher = more cleavage; in vitro, sequencing
How it was run: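 CPEB3 self-cleaving ribozyme mutant libraries were made by rounds of error-prone PCR, barcoded, and transcribed in vitro with T7 RNA polymerase for 5 hours at 37°C. Cleavage occurred during transcription and a 15 min DNase I step before EDTA stop. RNAs were reverse transcribed with template switching and Illumina-sequenced, with DNA sequencing mapping barcodes to variants. Relative activity is the variant's cleaved/total read fraction divided by wild type's (minimum 5 reads), averaged across three batches.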

Variant | self-cleavage
A28G A64U U72A | 0.17
A28G A65G U72A U78C | 0.08
A28G A65G U76A | 0.24
A28G C32G A47G U48C U60C | 0.02
A28G C32U U54A A56U | 0.46
A28G C34U U41A | 0.3
A28G C38U A56U U74C | 0.14
A28G C39A A56G U60C U67A U78A | 0.03
A28G C39A U41C A57G U67C | 0.1
A28G C39A U41G U74A | 0.46
A28G C39A U43A U66C | 0.13
A28G C39A U80C | 0.29
A28G C39U U41C A57G C59A U60C | 0.14
A28G C40U U67C | 0.34
A28G C44U A47G U60A C71G U78C | 0.08
A28G C59A U67C U69C | 0.15
A28G C59G U60A | 0.1
A28G C62U U80C | 0.29
A28G C71U U80A | 0.26
A28G G30A U67C | 0.16
A28G G30C A45U U58A U80A | 0.37

Variant | self-cleavage
A28G G30U U41G U48C | 0.11
A28G G30U U43A A56U U78A | 0.06
A28G G33A A35G U41G | 0.12
A28G G33A U60A C62U A65G U69A U72C | 0.08
A28G G33A U66C C71A | 0.11
A28G G36A A64G U76A U78A | 0.14
A28G G36U U48C A77G | 0.05
A28G G42A U43G | 0.26
A28G G42A U54A | 0.56
A28G G42U U66G | 0.11
A28G G46A U60C U66C U69C | 0.08
A28G G52A U72A | 0.71
A28G G52C U54A A56G | 0.44
A28G G53A G63A | 0.62
A28G G55A U67C U72C U80C | 0.16
A28G G63U U67C | 0.19
A28G G73A U80C | 1.12
A28G U31A U41A U72C | 0.09
A28G U31A U41C U43C A64U U80C | 0.07
A28G U31A U43A U74A U76C | 0.79
A28G U31C A35G C39U U48C U80C | 0.25

Variant | self-cleavage
A28G U31C A45G U51A A77C | 0.15
A28G U31C A57U | 0.16
A28G U31C A64G U67A U72C | 0.1
A28G U31C C38A U43C U49C U60C U80C | 0.06
A28G U31C C44A U74A | 0.1
A28G U31C C59U A75C | 0.23
A28G U31C U41A G53A A64U | 0.14
A28G U31C U43C U51C | 0.19
A28G U31C U58A | 0.38
A28G U31C U67C | 0.09
A28G U41A A65G U67C C81G | 0.05
A28G U41A U72A | 0.2
A28G U41C A47G U54A | 0.26
A28G U41C C50A U72A | 0.24
A28G U41C G53A A77G | 0.89
A28G U41C U43A U80A | 0.3
A28G U41C U48C U54C | 0.18
A28G U41C U66C U69A | 0.11
A28G U41G A65G | 0.23
A28G U43A U49C U60C G73A U76C | 0.06
A28G U43A U60A U72A | 0.16

Variant | self-cleavage
A28G U43C G63A U80G | 0.38
A28G U43C U51A | 0.38
A28G U43C U54C U69G | 0.18
A28G U43C U58C A77U | 0.17
A28G U43G G52U | 0.14
A28G U48A A57G A64U U76C | 0.05
A28G U48A U58A | 0.17
A28G U48C A56G | 0.14
A28G U48C G55C U58G U72G | 0.08
A28G U48C U51C A56U | 0.17
A28G U48C U51C A64G | 0.07
A28G U48C U58A A64G | 0.05
A28G U48C U60A | 0.12
A28G U49A A56G A65G U72A U74A U78A | 0.04
A28G U49C A77G | 0.22
A28G U49C C50A A64G | 0.13
A28G U49C U51C | 0.48
A28G U51A A56G | 0.2
A28G U51A U58A C81G | 0.11
A28G U51A U66A U72A | 0.21
A28G U51C G52C A56G U58C | 0.26
